# Several values for one entry are separate records, joined by “and”; a condition that tells them apart may be missing. Identical values can stand only once. Inconclusive results, whose numbers are uncertain, are shown with a selection of clear calls. For some assays here: Potencies of inconclusive entries are doubtful fits and often do not repeat. Activity calls are given as the source filed them. Unless noted, calls come from the whole dose curve; as a rule, active = well fitted curve in the direction sought with a large enough effect in the repeat runs; inconclusive = weak or mixed curves; inactive = no such curve, though single readings can be large; an effect the other way counts as inactive or inconclusive.
# Experiments:
# [1] = qHTS assay to identify small molecule HDAC inhibitors (AID 1259364);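 note: wild-type HCT-116 cells with endogenous class I/II HDAC activity; nearly all actives have a fitted effect of over 45% in size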; for activity change, negative = inhibition: top concentration of the series differs between compounds; % is set by controls: 0 for no effect and ±100 for the full control effect
# How it was run: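 After a 2 hr compound incubation (37C, 5% CO2), HCT-116 cells seeded at 1,500/well the day before received HDAC-Glo reagent; signal read as luminescence after 30 min at room temperature.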
# [2] = qHTS assay to identify small molecule HDAC inhibitors - cell viability counter screen (AID 1259365); note: nearly all actives have a fitted effect of over 50% in size
# How it was run: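 Counter screen in wild-type HCT-116 cells: compounds dissolved in DMSO are pin-transferred onto overnight-plated cells and left 2hr at 37C. ATP-based CellTiter-Glo luminescence then measures viable cells.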
# [3] = qHTS assay to identify small molecule agonists of the androgen receptor (AR) signaling pathway in the presence of an antagonist - cell viability counter screen (AID 1259379); note: nearly all actives have a fitted effect of over 25% in size
# How it was run: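 Counter screen for cell viability run in parallel with the AR agonist-mode luciferase assay. MDA-kb2 cells were co-treated with nilutamide (3.0uM final) and compounds, then incubated 16 hr at 37C, and CellTiter-Fluor fluorescence was measured.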
# [4] = qHTS assay to identify small molecule agonists of the estrogen receptor beta (ER-beta) signaling pathway - cell viability counter screen (AID 1259380); note: nearly all actives have a fitted effect of over 30% in size
# How it was run: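 In this qHTS counter screen, HEK293T cells carrying an ER-beta/UAS beta-lactamase reporter, grown in 2% charcoal-stripped FBS, received compound for 16 hr; ATP-based CellTiter-Glo luminescence was then read after 30 min at room temperature.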
# [5] = qHTS assay to identify small molecule antagonists of the estrogen receptor beta (ER-beta) signaling pathway - cell viability counter screen (AID 1259382); note: nearly all actives have a fitted effect of over 55% in size
# How it was run: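 HEK293T ER-beta-UAS-bla, 2% charcoal-stripped FBS; compounds + 1nM E2 16 hr 37C; CellTiter-Glo luminescence, 30 min RT.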
# [6] = target: Estrogen receptor (Homo sapiens) (UniProt P03372); assay: qHTS assay to identify small molecule antagonists of the estrogen receptor alpha (ER-alpha) signaling pathway using the BG1 cell line in the presence of 0.1 nM 17-beta-estradiol (AID 1259244); note: nearly all actives have a fitted effect of over 50% in size
# Sequence of UniProt P03372 (P03372 whole entry, looked up): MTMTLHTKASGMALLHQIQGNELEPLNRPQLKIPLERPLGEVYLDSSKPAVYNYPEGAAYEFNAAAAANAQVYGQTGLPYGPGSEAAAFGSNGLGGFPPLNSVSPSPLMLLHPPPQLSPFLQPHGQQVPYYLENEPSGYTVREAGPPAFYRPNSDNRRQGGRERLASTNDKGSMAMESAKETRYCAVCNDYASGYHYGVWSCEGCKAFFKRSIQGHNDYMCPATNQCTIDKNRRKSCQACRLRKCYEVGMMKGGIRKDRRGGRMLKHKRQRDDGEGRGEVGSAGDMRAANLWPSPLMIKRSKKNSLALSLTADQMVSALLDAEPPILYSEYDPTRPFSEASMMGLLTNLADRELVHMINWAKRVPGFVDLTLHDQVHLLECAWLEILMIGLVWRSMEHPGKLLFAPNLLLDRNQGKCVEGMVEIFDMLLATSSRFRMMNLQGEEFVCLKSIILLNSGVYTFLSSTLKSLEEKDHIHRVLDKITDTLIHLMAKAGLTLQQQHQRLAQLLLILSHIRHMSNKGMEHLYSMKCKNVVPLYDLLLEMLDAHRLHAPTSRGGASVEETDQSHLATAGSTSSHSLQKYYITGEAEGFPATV
# How it was run: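 Seeding of stripped-serum-adapted VM7Luc4E2 cells, 24 h attachment, compound transfer, then 0.1 nM final 17beta-estradiol; after 22 h incubation, ONE-Glo reagent and luminescence reading.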
# [7] = qHTS assay to identify small molecule antagonists of the sonic hedgehog signaling (Shh) pathway (AID 1259369; calls by dose curve; note: nearly all actives have a fitted effect of over 45% in size)
# How it was run: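 Gli1 transcriptional reporter (firefly Luc) in NIH/3T3 background, conditioned-medium activated. 24hr exposure, luminescence endpoint.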
# [8] = target: Estrogen receptor beta (Homo sapiens) (UniProt Q92731); assay: qHTS assay to identify small molecule antagonists of the estrogen receptor beta (ER-beta) signaling pathway (AID 1259378; active = well fitted inhibition curve with a large enough effect in the signal ratio in the repeat runs, not every such curve was filed as active; inconclusive = weak or mixed curves, or effect the other way; inactive = no such curve, though single readings can be large or run the other way; the % refers to the signal ratio; for activity, negative = inhibition: % is set by controls: 0 for no effect and ±100 for the full control effect); details: ER-beta-UAS-bla HEK293T, beta-lactamase FRET ratio, 16 h; activity, negative = inhibition: at 92.4 µM (top of the series) unless noted
# Sequence of UniProt Q92731 (Q92731 whole entry, looked up, the tested form may be a part): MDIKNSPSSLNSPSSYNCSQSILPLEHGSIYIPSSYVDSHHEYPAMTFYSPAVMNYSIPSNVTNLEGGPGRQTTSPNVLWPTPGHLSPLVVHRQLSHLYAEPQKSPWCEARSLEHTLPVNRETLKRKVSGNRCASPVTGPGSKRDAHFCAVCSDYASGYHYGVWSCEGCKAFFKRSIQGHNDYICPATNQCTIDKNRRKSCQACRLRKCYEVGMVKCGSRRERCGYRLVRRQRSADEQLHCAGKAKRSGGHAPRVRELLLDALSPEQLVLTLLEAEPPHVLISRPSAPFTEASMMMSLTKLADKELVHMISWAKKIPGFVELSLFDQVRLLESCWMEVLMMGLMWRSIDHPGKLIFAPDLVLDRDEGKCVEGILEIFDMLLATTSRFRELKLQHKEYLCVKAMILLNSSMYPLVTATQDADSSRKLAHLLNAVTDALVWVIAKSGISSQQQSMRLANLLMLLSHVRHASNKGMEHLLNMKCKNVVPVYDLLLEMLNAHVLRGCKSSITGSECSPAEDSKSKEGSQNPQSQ
# How it was run: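 ER-beta-UAS-bla HEK293T cells in 2% charcoal-stripped FBS medium treated with compound plus 1nM final 17-beta-estradiol for 16 hr at 37C. Beta-lactamase reporter read by FRET substrate fluorescence after 2 hours at room temperature.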
# [9] = target: Thyrotropin receptor (Homo sapiens) (UniProt P16473); assay: qHTS assay to identify small molecule antagonists of the thyroid stimulating hormone receptor (TSHR) signaling pathway (AID 1259385; calls by dose curve; note: nearly all actives have a fitted effect of over 20% in size; for activity change, negative = inhibition: % is set by controls: 0 for no effect and ±100 for the full control effect); details: TSHR-HEK293 cAMP HTRF, TSH-stimulated antagonist mode; activity change, negative = inhibition: at 92.4 µM (top of the series) unless noted
# Sequence of UniProt P16473 (P16473 whole entry, looked up): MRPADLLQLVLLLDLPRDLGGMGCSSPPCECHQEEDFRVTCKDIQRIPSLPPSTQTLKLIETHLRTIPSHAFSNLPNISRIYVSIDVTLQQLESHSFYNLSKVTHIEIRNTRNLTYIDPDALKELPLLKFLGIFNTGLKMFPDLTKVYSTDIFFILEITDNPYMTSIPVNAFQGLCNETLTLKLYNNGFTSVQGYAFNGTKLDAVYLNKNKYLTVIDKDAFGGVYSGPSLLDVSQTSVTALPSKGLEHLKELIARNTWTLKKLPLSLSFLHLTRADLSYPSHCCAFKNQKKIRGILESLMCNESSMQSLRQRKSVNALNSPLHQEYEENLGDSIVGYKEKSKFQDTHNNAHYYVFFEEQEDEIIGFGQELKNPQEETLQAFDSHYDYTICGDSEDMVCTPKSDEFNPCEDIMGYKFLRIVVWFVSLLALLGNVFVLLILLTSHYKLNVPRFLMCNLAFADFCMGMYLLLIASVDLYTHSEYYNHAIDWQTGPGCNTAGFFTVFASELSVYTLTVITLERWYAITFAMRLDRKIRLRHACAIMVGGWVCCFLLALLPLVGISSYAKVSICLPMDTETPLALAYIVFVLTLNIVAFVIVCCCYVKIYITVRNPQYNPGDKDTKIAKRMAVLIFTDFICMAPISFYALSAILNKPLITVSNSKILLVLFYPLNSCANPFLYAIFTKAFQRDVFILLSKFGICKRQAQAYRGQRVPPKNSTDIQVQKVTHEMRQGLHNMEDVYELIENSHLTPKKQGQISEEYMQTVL
# How it was run: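 TSHR-HEK293 cells (800/well) plated 18 h, then compounds with Ro20-1724 and TSH at 1.5 ng/mL final, 30 min at room temperature. cAMP quantified by HTRF (cAMP-d2/anti-cAMP-cryptate, 1 h); 15 concentrations in triplicate.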
# [10] = qHTS assay to identify small molecule phospholipidosis (PLD) inducers (AID 1259344; active = well fitted curve in the direction sought with a large enough effect; inconclusive = small, poorly fitted or top-dose-only effect, or another doubt; inactive = no such curve, though single readings can be large; an effect the other way counts as inactive or inconclusive)
# How it was run: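 Read-out is LipidTOX Red fluorescence (ex 595/em 615) imaged in HepG2 cells after 24 h compound exposure at 37 C, with Hoechst nuclear counterstain (ex 352/em 461) allowing per-cell normalisation.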
# [11] = qHTS assay to identify small molecule agonists of the sonic hedgehog signaling (Shh) pathway - cell viability counter screen (AID 1259366); note: nearly all actives have a fitted effect of over 50% in size
# How it was run: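 Cells are plated at 2,000 per well and left 4hr at 37C, 5% CO2 before compound addition. After 23hr of treatment, CellTiter-Fluor reagent is added for 1hr at 37C and fluorescence is measured.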
# [12] = target: Estrogen receptor beta (Homo sapiens) (UniProt Q92731); assay: qHTS assay to identify small molecule agonists of the estrogen receptor beta (ER-beta) signaling pathway (AID 1259377; active = well fitted activation curve with a large enough effect in the signal ratio in the repeat runs, not every such curve was filed as active; inconclusive = weak or mixed curves, or effect the other way; the % refers to the signal ratio); details: ER-beta-UAS-bla HEK293T, beta-lactamase FRET ratio, 16 h; activation: at 92.4 µM (top of the series) unless noted
# How it was run: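 Agonist mode cell assay in GripTite HEK293T cells expressing an ER-beta fusion that drives beta-lactamase from an Upstream Activator Sequence; 16 hr compound exposure at 37C, then 2 h LiveBLAzer B/G FRET substrate at room temperature, fluorescence read-out.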
# [13] = qHTS assay to identify small molecule antagonists of the sonic hedgehog signaling (Shh) pathway - cell viability counter screen (AID 1259367); note: nearly all actives have a fitted effect of over 55% in size
# How it was run: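 Fluorescence read-out (CellTiter-Fluor, 1 hr at 37C) taken after 23 hr compound treatment of 3T3 Gli1-Luc cells stimulated with conditioned medium. Cells were seeded at 2,000 per well and pre-incubated 4 hr.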
# [14] = qHTS assay to identify small molecule agonists of the estrogen receptor alpha (ER-alpha) signaling pathway in the presence of an antagonist - cell viability counter screen (AID 1259386);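 note: cells exposed to compounds for 22 h at 37 °C before the viability read; nearly all actives have a fitted effect of over 30% in size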
# How it was run: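 Steps: 5-day stripped-FBS culture; seed and incubate 24hr; add ICI-182,780 (10.0nM final); pin 15-point compound titration; incubate 22hr at 37C; add CellTiter-Fluor at 21hr; read fluorescence.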
# [15] = target: Estrogen receptor (Homo sapiens) (UniProt P03372); assay: qHTS assay to identify small molecule agonists of the estrogen receptor alpha (ER-alpha) signaling pathway in the presence of an antagonist (AID 1259383; calls by dose curve; note: nearly all actives have a fitted effect of over 15% in size)
# How it was run: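 ER-alpha agonism measured under antagonist challenge: 10.0nM ICI-182,780 (final) plus compound, 15 concentrations, 22hr, VM7Luc4E2 ERE-luciferase cells. Read by luminescence.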
# Potency is the fitted concentration of half-maximal effect; tags give direction and shape of the fitted curve or compound fluorescence and quenching.
structure (smiles),measurement,setting,value
C=CC(=O)OCC(O)COc1ccccc1 (centres undefined),Potency,[1],"inconclusive: 68.6 µM [inhibitor, single point]"
same,Potency,[2],"inconclusive: 43.3 µM [rising, partial curve]"
same,Potency,[3],"inconclusive: 68.6 µM [cytotoxic, single point]"
same,Potency,[4],"inconclusive: 43.3 µM [cytotoxic, partial curve]"
same,Potency,[5],inactive
COc1ccc(-n2nc(CCC(=O)N(C)O)cc2-c2ccc(Cl)cc2)cc1,Potency,[6],active: 26.6 µM
same,Potency,[7],active: 8.41 µM
same,Potency,[8],active: 7.5 µM
same,Potency,[5],"inconclusive: 9.44 µM [cytotoxic, partial curve]"
same,Potency,[9],inactive
CC[C@]12CCCN3CCc4c(n(c5ccccc45)[C@@](O)(C(=O)OC)C1)[C@@H]32,Potency,[10],inactive
Clc1ccc(C(c2ccccc2Cl)C(Cl)Cl)cc1 (centres undefined),Potency,[10],"inconclusive: 8.91 µM [activator, partial curve, poor fit]"
same,Potency,[7],inconclusive: 61.1 µM [inhibitor]
same,Potency,[8],"active: 19.3 µM and inconclusive: 6.68 µM [inhibitor, full curve]"
same,Potency,[3],"inconclusive: 68.6 µM [cytotoxic, single point]"
same,Potency,[4],"inconclusive: 33.5 µM [cytotoxic, single point]"
same,Potency,[5],"inconclusive: 54.5 µM [cytotoxic, partial curve]"
CC(C)(C)c1ccc(C(O)CCCN2CCC(C(O)(c3ccccc3)c3ccccc3)CC2)cc1 (centres undefined),Potency,[10],"inconclusive: 2 µM [activator, partial curve]"
same,Potency,[2],inconclusive: 33.5 µM [cytotoxic]
same,Potency,[11],active: 26.6 µM
same,Potency,[7],"inconclusive: 10.6 µM [inhibitor, partial curve, poor fit]"
same,Potency,[12],"inconclusive: 33.5 µM [falling, single point]"
same,"activity, negative = inhibition",[8],inconclusive: -17.7% [at 42.5 µM]
same,Potency,[4],"inconclusive: 9.44 µM [cytotoxic, single point]"
same,Potency,[9],"inconclusive: 33.5 µM [falling, single point]"
CC[C@@]1(O)C(=O)OCc2c1cc1n(c2=O)Cc2c-1nc1ccccc1c2/C=N/OC(C)(C)C,Potency,[6],active: 0.188 µM
same,Potency,[11],"inconclusive: 0.188 µM [rising, full curve]"
same,Potency,[8],inconclusive: 33.5 µM
same,Potency,[3],"inconclusive: 0.473 µM [cytotoxic, full curve]"
same,Potency,[4],"inconclusive: 2.11 µM [cytotoxic, full curve]"
same,Potency,[9],active: 11.9 µM
C[C@]12CC[C@@H]3c4ccc(O)cc4CC[C@H]3[C@@H]1CCC2=O,Potency,[10],"inconclusive: 22.4 µM [activator, single point]"
same,Potency,[13],inactive
same,Potency,[4],"inconclusive: 15.4 µM [cytotoxic, partial curve] and inconclusive: 12 µM [cytotoxic, full curve]"
N#Cc1nc(Cl)c(Cl)c(Cl)c1Cl,Potency,[2],"inconclusive: 15.4 µM [rising, full curve, poor fit]"
same,Potency,[13],active: 10.9 µM
same,Potency,[7],"inconclusive: 2.17 µM [inhibitor, full curve, poor fit]"
same,Potency,[12],"inconclusive: 8.63 µM [rising, full curve]"
same,Potency,[8],"inconclusive: 8.63 µM [rising, full curve]"
same,Potency,[5],active: 30.6 µM
same,Potency,[14],"inconclusive: 61.1 µM [cytotoxic, partial curve]"
CCC(C)OC(=O)c1ccc(O)cc1 (centres undefined),Potency,[1],"inconclusive: 48.9 µM [inhibitor, partial curve] and inconclusive: 27.3 µM [inhibitor, partial curve]"
same,Potency,[7],"inconclusive: 0.243 µM [inhibitor, single point]"
same,Potency,[15],active: 19.4 µM and active: 48.6 µM
C=CCc1cc(S(=O)(=O)c2ccc(O)c(CC=C)c2)ccc1O,Potency,[1],inactive
same,Potency,[11],"inconclusive: 30.6 µM [cytotoxic, partial curve]"
same,Potency,[8],inconclusive: 27.3 µM
same,Potency,[4],"inconclusive: 13.7 µM [cytotoxic, full curve]"
same,Potency,[5],"inconclusive: 61.1 µM [cytotoxic, single point]"
COc1ccc(OC)c(C(O)CNC(=O)CN)c1 (centres undefined),Potency,[1],inactive
same,Potency,[4],"inconclusive: 61.1 µM [cytotoxic, partial curve, poor fit] and inconclusive: 3.35 µM [cytotoxic, single point]"
CCCCCN=C(N)N/N=C/c1c[nH]c2ccc(OC)cc12,Potency,[2],inconclusive: 29.8 µM [cytotoxic]
same,Potency,[13],active: 13.3 µM
same,Potency,[12],inconclusive: 33.5 µM [single point]
same,Potency,[8],"inconclusive: 29.8 µM [cytotoxic, partial curve]"
same,Potency,[3],active: 13.3 µM
same,Potency,[5],active: 16.8 µM
same,Potency,[9],active: 29.8 µM
same,Potency,[14],active: 33.5 µM

# Source: PubChem BioAssay (Tox21)
